Experimental data as given in article PMC12820563.
This is one part of the list. The list includes weakly bound sequences.

target: T1, MBP-FoxP3dN (UniProt Q99JB6); assay: PD-seq (MBP pull-down with sequencing); details: 20 mM Tris-HCl pH 7.5, 100 mM NaCl, 1.5 mM MgCl2, 0.4 uM protein, 0.1 uM dsDNA library, 30 min, room temperature, amylose pull-down; high values mean tight binding; double strand, one strand shown
T1 sequence: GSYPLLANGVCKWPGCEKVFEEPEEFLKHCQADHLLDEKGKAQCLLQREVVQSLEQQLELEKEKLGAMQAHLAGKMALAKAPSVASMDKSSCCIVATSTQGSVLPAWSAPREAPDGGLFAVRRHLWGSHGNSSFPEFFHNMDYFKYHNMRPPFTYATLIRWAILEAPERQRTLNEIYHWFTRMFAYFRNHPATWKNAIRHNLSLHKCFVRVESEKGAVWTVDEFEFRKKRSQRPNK

Sequence | binding signal (RPM ratio (pull-down/input))
GATGATTGTTCTCCCAGCTGATGAATTGTGTTTCTCGAGTAAACAAATTTTCCTAATCTTTCTGTTCAAGCGCCATCTAC | 4.32
GATGATTGTTCTCCCAGCTGATGAATTGGAGTCCTCGAGTAAACAAATTTTCCTAATCTTTCTGTTCAAGCGCCATCTAC | 0.398
GATGATTGTTCTCCCAGCTGATGAATTACGTCCATCGAGTAAACAAATTTTCCTAATCTTTCTGTTCAAGCGCCATCTAC | 0.517
GATGATTGTTCTCCCAGCTGATGAATTATTAAAGTCGAGTAAACAAATTTTCCTAATCTTTCTGTTCAAGCGCCATCTAC | 0.243
GATGATTGTTCTCCCAGCTGATGAATTAAACAACTCGAGTAAACAAATTTTCCTAATCTTTCTGTTCAAGCGCCATCTAC | 1.08
GATGATTGTTCTCCCAGCTGATGAATTCGATTAATCGAGTAAACAAATTTTCCTAATCTTTCTGTTCAAGCGCCATCTAC | 0.397
GATGATTGTTCTCCCAGCTGATGAATTTAACCTTTCGAGTAAACAAATTTTCCTAATCTTTCTGTTCAAGCGCCATCTAC | 0.311
GATGATTGTTCTCCCAGCTGATGAATTCGGGGCTTCGAGTAAACAAATTTTCCTAATCTTTCTGTTCAAGCGCCATCTAC | 0.379
GATGATTGTTCTCCCAGCTGATGAATTGCAAGTATCGAGTAAACAAATTTTCCTAATCTTTCTGTTCAAGCGCCATCTAC | 1.12
GATGATTGTTCTCCCAGCTGATGAATTTCCCACCTCGAGTAAACAAATTTTCCTAATCTTTCTGTTCAAGCGCCATCTAC | 0.238
GATGATTGTTCTCCCAGCTGATGAATTCGTACGGTCGAGTAAACAAATTTTCCTAATCTTTCTGTTCAAGCGCCATCTAC | 0.369
GATGATTGTTCTCCCAGCTGATGAATTTACAACTTCGAGTAAACAAATTTTCCTAATCTTTCTGTTCAAGCGCCATCTAC | 0.617
GATGATTGTTCTCCCAGCTGATGAATTAGCGGGGTCGAGTAAACAAATTTTCCTAATCTTTCTGTTCAAGCGCCATCTAC | 0.388
GATGATTGTTCTCCCAGCTGATGAATTGAGACAATCGAGTAAACAAATTTTCCTAATCTTTCTGTTCAAGCGCCATCTAC | 0.509
GATGATTGTTCTCCCAGCTGATGAATTAACAATCTCGAGTAAACAAATTTTCCTAATCTTTCTGTTCAAGCGCCATCTAC | 0.562
GATGATTGTTCTCCCAGCTGATGAATTGGAGCGTTCGAGTAAACAAATTTTCCTAATCTTTCTGTTCAAGCGCCATCTAC | 0.97

Sequence | binding signal (RPM ratio (pull-down/input))
GATGATTGTTCTCCCAGCTGATGAATTCGCTTAGTCGAGTAAACAAATTTTCCTAATCTTTCTGTTCAAGCGCCATCTAC | 0.978
GATGATTGTTCTCCCAGCTGATGAATTTCCGGCTTCGAGTAAACAAATTTTCCTAATCTTTCTGTTCAAGCGCCATCTAC | 0.252
GATGATTGTTCTCCCAGCTGATGAATTAGATCGCTCGAGTAAACAAATTTTCCTAATCTTTCTGTTCAAGCGCCATCTAC | 0.31
GATGATTGTTCTCCCAGCTGATGAATTGAAGTTCTCGAGTAAACAAATTTTCCTAATCTTTCTGTTCAAGCGCCATCTAC | 0.457
GATGATTGTTCTCCCAGCTGATGAATTTTCCCAATCGAGTAAACAAATTTTCCTAATCTTTCTGTTCAAGCGCCATCTAC | 0.285
GATGATTGTTCTCCCAGCTGATGAATTATTTACGTCGAGTAAACAAATTTTCCTAATCTTTCTGTTCAAGCGCCATCTAC | 3.11
GATGATTGTTCTCCCAGCTGATGAATTTACCCACTCGAGTAAACAAATTTTCCTAATCTTTCTGTTCAAGCGCCATCTAC | 0.435
GATGATTGTTCTCCCAGCTGATGAATTATAATTTTCGAGTAAACAAATTTTCCTAATCTTTCTGTTCAAGCGCCATCTAC | 0.583
GATGATTGTTCTCCCAGCTGATGAATTTGGTATGTCGAGTAAACAAATTTTCCTAATCTTTCTGTTCAAGCGCCATCTAC | 2.99
GATGATTGTTCTCCCAGCTGATGAATTTACGTCTTCGAGTAAACAAATTTTCCTAATCTTTCTGTTCAAGCGCCATCTAC | 0.682
GATGATTGTTCTCCCAGCTGATGAATTAGTCTGGTCGAGTAAACAAATTTTCCTAATCTTTCTGTTCAAGCGCCATCTAC | 0.491
GATGATTGTTCTCCCAGCTGATGAATTCAAACAGTCGAGTAAACAAATTTTCCTAATCTTTCTGTTCAAGCGCCATCTAC | 0.589
GATGATTGTTCTCCCAGCTGATGAATTGATTATGTCGAGTAAACAAATTTTCCTAATCTTTCTGTTCAAGCGCCATCTAC | 1.86
GATGATTGTTCTCCCAGCTGATGAATTCCGATGGTCGAGTAAACAAATTTTCCTAATCTTTCTGTTCAAGCGCCATCTAC | 0.581
GATGATTGTTCTCCCAGCTGATGAATTCCTTCTGTCGAGTAAACAAATTTTCCTAATCTTTCTGTTCAAGCGCCATCTAC | 0.214
